{
  "source": "the supplement of paper PMC8728848",
  "binders": {"B1": {"name": "LICBM33A (Lactococcus lactis), Q9CE94 (protein)", "chain": "MKKLLTGLLVAAGLLSVSLLIKTDTVSAHGYVQSPPARGYQGQLDSQSLGWTAAFNIYGNVISNPQSLEAPKGFPECGPADGRIASANGGLGQIGDFVLDNQTSSRWKKTSISTGSNIFTWKYTAPHKTTKWHYYMTKTGWDQNAPLKHSELELIGTINHDGSPATNNLSHTINIPTDRSGYHIVLAVWDVADTSNAFYNVIDINVNNKNASSQVFGPFL"}},
  "assay_in_all_cases": "glycan array binding signal (z-score within array); higher = stronger binding",
  "settings_in_all_cases": "glycan notation: IUPAC condensed, linker removed",
  "key": {"[1]": {"molecular_target": "Gal(b1-4)GlcNAc(b1-3)Gal(b1-4)GlcNAc(b1-3)Gal(b1-4)GlcNAc(b1-3)Gal(b1-4)GlcNAc(b1-2)Man(a1-3)[Gal(b1-4)GlcNAc(b1-3)Gal(b1-4)GlcNAc(b1-3)Gal(b1-4)GlcNAc(b1-3)Gal(b1-4)GlcNAc(b1-2)Man(a1-6)]Man(b1-4)GlcNAc(b1-4)GlcNAc", "outline": "(§1)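 Glycan array data came from 3228 arrays in the Consortium for Functional Glycomics database, and only arrays with an available protein sequence were kept. Glycan names were put into IUPAC-condensed notation, and columns mapping to the same glycan were averaged. The binding signal is a within-array Z-score, averaged across arrays of one protein sequence run at different concentrations or buffers and across linkers. A negative Z-score can be read as non-binding.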"}, "[2]": {"molecular_target": "Gal(b1-4)GlcNAc(b1-3)Gal(b1-4)GlcNAc(b1-3)Gal(b1-4)GlcNAc(b1-3)Gal(b1-4)GlcNAc(b1-2)Man(a1-3)[Gal(b1-4)GlcNAc(b1-3)Gal(b1-4)GlcNAc(b1-3)Gal(b1-4)GlcNAc(b1-3)Gal(b1-4)GlcNAc(b1-2)Man(a1-6)]Man(b1-4)GlcNAc(b1-4)[Fuc(a1-6)]GlcNAc", "outline": "as §1"}, "[3]": {"molecular_target": "Gal(b1-4)GlcNAc(b1-3)Gal(b1-4)GlcNAc(b1-3)Gal(b1-4)GlcNAc(b1-3)Gal(b1-4)GlcNAc(b1-2)[Gal(b1-4)GlcNAc(b1-3)Gal(b1-4)GlcNAc(b1-3)Gal(b1-4)GlcNAc(b1-3)Gal(b1-4)GlcNAc(b1-6)]Man(a1-6)[Gal(b1-4)GlcNAc(b1-3)Gal(b1-4)GlcNAc(b1-3)Gal(b1-4)GlcNAc(b1-3)Gal(b1-4)GlcNAc(b1-2)Man(a1-3)]Man(b1-4)GlcNAc(b1-4)[Fuc(a1-6)]GlcNAc", "outline": "as §1"}, "[4]": {"molecular_target": "Gal(b1-4)GlcNAc(b1-3)Gal(b1-4)GlcNAc(b1-3)Gal(b1-4)GlcNAc(b1-3)Gal(b1-4)GlcNAc(b1-3)Gal(b1-4)GlcNAc(b1-2)Man(a1-3)[Gal(b1-4)GlcNAc(b1-3)Gal(b1-4)GlcNAc(b1-3)Gal(b1-4)GlcNAc(b1-3)Gal(b1-4)GlcNAc(b1-3)Gal(b1-4)GlcNAc(b1-2)Man(a1-6)]Man(b1-4)GlcNAc(b1-4)GlcNAc", "outline": "as §1"}, "[5]": {"molecular_target": "Gal(b1-4)GlcNAc(b1-3)Gal(b1-4)GlcNAc(b1-3)Gal(b1-4)GlcNAc(b1-3)Gal(b1-4)GlcNAc(b1-3)Gal(b1-4)GlcNAc(b1-2)Man(a1-3)[Gal(b1-4)GlcNAc(b1-3)Gal(b1-4)GlcNAc(b1-3)Gal(b1-4)GlcNAc(b1-3)Gal(b1-4)GlcNAc(b1-3)Gal(b1-4)GlcNAc(b1-2)Man(a1-6)]Man(b1-4)GlcNAc(b1-4)[Fuc(a1-6)]GlcNAc", "outline": "as §1"}, "[6]": {"molecular_target": "Gal(b1-4)GlcNAc(b1-3)Gal(b1-4)GlcNAc(b1-3)Gal(b1-4)GlcNAc(b1-3)Gal(b1-4)GlcNAc(b1-3)Gal(b1-4)GlcNAc(b1-2)[Gal(b1-4)GlcNAc(b1-3)Gal(b1-4)GlcNAc(b1-3)Gal(b1-4)GlcNAc(b1-3)Gal(b1-4)GlcNAc(b1-3)Gal(b1-4)GlcNAc(b1-6)]Man(a1-6)[Gal(b1-4)GlcNAc(b1-3)Gal(b1-4)GlcNAc(b1-3)Gal(b1-4)GlcNAc(b1-3)Gal(b1-4)GlcNAc(b1-3)Gal(b1-4)GlcNAc(b1-2)Man(a1-3)]Man(b1-4)GlcNAc(b1-4)[Fuc(a1-6)]GlcNAc", "outline": "as §1"}, "[7]": {"molecular_target": "Gal(b1-4)GlcNAc(b1-3)Gal(b1-4)GlcNAc(b1-3)Gal(b1-4)GlcNAc(b1-3)Gal(b1-4)GlcNAc(b1-3)Gal(b1-4)GlcNAc(b1-3)Gal(b1-4)GlcNAc(b1-2)Man(a1-3)[Gal(b1-4)GlcNAc(b1-3)Gal(b1-4)GlcNAc(b1-3)Gal(b1-4)GlcNAc(b1-3)Gal(b1-4)GlcNAc(b1-3)Gal(b1-4)GlcNAc(b1-3)Gal(b1-4)GlcNAc(b1-2)Man(a1-6)]Man(b1-4)GlcNAc(b1-4)GlcNAc", "outline": "as §1"}, "[8]": {"molecular_target": "Gal(b1-4)GlcNAc(b1-3)Gal(b1-4)GlcNAc(b1-3)GalNAc", "outline": "as §1"}, "[9]": {"molecular_target": "Gal(b1-4)GlcNAc(b1-3)Gal(b1-4)GlcNAc(b1-3)[Gal(b1-4)GlcNAc(b1-3)Gal(b1-4)GlcNAc(b1-6)]GalNAc", "outline": "as §1"}, "[10]": {"molecular_target": "Gal(b1-4)GlcNAc(b1-3)Gal(b1-4)GlcNAc(b1-6)[Gal(b1-3)]GalNAc", "outline": "as §1"}, "[11]": {"molecular_target": "Gal(b1-4)GlcNAc(b1-3)Gal(b1-4)[Fuc(a1-3)]GlcNAc(b1-3)Gal(b1-4)[Fuc(a1-3)]GlcNAc", "outline": "as §1"}, "[12]": {"molecular_target": "Gal(b1-4)GlcNAc(b1-3)GalNAc", "outline": "as §1"}, "[13]": {"molecular_target": "Gal(b1-4)GlcNAc(b1-3)[Fuc(a1-3)GlcNAc(b1-6)]Gal(b1-4)Glc", "outline": "as §1"}, "[14]": {"molecular_target": "Gal(b1-4)GlcNAc(b1-3)[Gal(b1-4)GlcNAc(b1-6)]Gal(b1-4)GlcNAc", "outline": "as §1"}, "[15]": {"molecular_target": "Gal(b1-4)GlcNAc(b1-3)[GlcNAc(b1-6)]Gal(b1-4)GlcNAc", "outline": "as §1"}, "[16]": {"molecular_target": "Gal(b1-4)GlcNAc(b1-6)Gal(b1-4)GlcNAc", "outline": "as §1"}, "[17]": {"molecular_target": "Gal(b1-4)GlcNAc(b1-6)GalNAc", "outline": "as §1"}, "[18]": {"molecular_target": "Gal(b1-4)GlcNAc(b1-6)[Gal(b1-3)]GalNAc", "outline": "as §1"}, "[19]": {"molecular_target": "Gal(b1-4)GlcNAc(b1-6)[Gal(b1-4)GlcNAc(b1-3)]GalNAc", "outline": "as §1"}, "Gal(b1-4)GlcNAc6P": {"molecular_target": "Gal(b1-4)GlcNAc6P", "outline": "as §1"}, "Gal(b1-6)Gal": {"molecular_target": "Gal(b1-6)Gal", "outline": "as §1"}, "Gal3S(b1-3)GalNAc": {"molecular_target": "Gal3S(b1-3)GalNAc", "outline": "as §1"}, "Gal3S(b1-3)GlcNAc": {"molecular_target": "Gal3S(b1-3)GlcNAc", "outline": "as §1"}},
  "note": "This is one part of the list.",
  "data": [
    {"binder": "B1", "values": [
      {"measurement": "glycan array binding signal (z-score)", "setting": "[1]", "result": 3.05},
      {"measurement": "glycan array binding signal (z-score)", "setting": "[2]", "result": 4.11},
      {"measurement": "glycan array binding signal (z-score)", "setting": "[3]", "result": -0.119},
      {"measurement": "glycan array binding signal (z-score)", "setting": "[4]", "result": 0.843},
      {"measurement": "glycan array binding signal (z-score)", "setting": "[5]", "result": 6.2},
      {"measurement": "glycan array binding signal (z-score)", "setting": "[6]", "result": 6.18},
      {"measurement": "glycan array binding signal (z-score)", "setting": "[7]", "result": -0.395},
      {"measurement": "glycan array binding signal (z-score)", "setting": "[8]", "result": -0.241},
      {"measurement": "glycan array binding signal (z-score)", "setting": "[9]", "result": -0.232},
      {"measurement": "glycan array binding signal (z-score)", "setting": "[10]", "result": 0.491},
      {"measurement": "glycan array binding signal (z-score)", "setting": "[11]", "result": -0.164},
      {"measurement": "glycan array binding signal (z-score)", "setting": "[12]", "result": -0.527},
      {"measurement": "glycan array binding signal (z-score)", "setting": "[13]", "result": -0.356},
      {"measurement": "glycan array binding signal (z-score)", "setting": "[14]", "result": -0.182},
      {"measurement": "glycan array binding signal (z-score)", "setting": "[15]", "result": -0.24},
      {"measurement": "glycan array binding signal (z-score)", "setting": "[16]", "result": -0.341},
      {"measurement": "glycan array binding signal (z-score)", "setting": "[17]", "result": -0.959},
      {"measurement": "glycan array binding signal (z-score)", "setting": "[18]", "result": 0.787},
      {"measurement": "glycan array binding signal (z-score)", "setting": "[19]", "result": -0.654},
      {"measurement": "glycan array binding signal (z-score)", "setting": "Gal(b1-4)GlcNAc6P", "result": 0.236},
      {"measurement": "glycan array binding signal (z-score)", "setting": "Gal(b1-6)Gal", "result": -0.335},
      {"measurement": "glycan array binding signal (z-score)", "setting": "Gal3S(b1-3)GalNAc", "result": -0.215},
      {"measurement": "glycan array binding signal (z-score)", "setting": "Gal3S(b1-3)GlcNAc", "result": -0.098}
    ]}
  ]
}
